# Measurements reported in the supplement of paper PMC8728848.
# The list shows a part of the results.
# Assays:
# Assay in all cases: glycan array binding signal (z-score within array); higher = stronger binding
# Settings in all cases: glycan notation: IUPAC condensed, linker removed
# [1] = target: Gal(b1-3)[Neu5Ac(a2-6)]GalNAc
# Method in brief: (§1)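 The binding signal is a Z-score computed within each array. Data were drawn from 3228 arrays in the Consortium for Functional Glycomics database, restricted to those with a known protein sequence. Scores were averaged over arrays of the same protein sequence at different concentrations or buffers, and over linkers, and negative values can be taken as non-binding.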
# [2] = target: Gal(b1-3)[Neu5Ac(a2-6)]GlcNAc(b1-6)Gal(b1-4)Glc
# Method in brief: as §1
# [3] = target: Gal(b1-3)[Neu5Ac(b2-6)]GalNAc
# Method in brief: as §1
# [4] = target: Gal(b1-4)GalNAc(a1-3)[Fuc(a1-2)]Gal(b1-4)GlcNAc
# Method in brief: as §1
# [5] = target: Gal(b1-4)GalNAc(b1-3)[Fuc(a1-2)]Gal(b1-4)GlcNAc
# Method in brief: as §1
# [6] = target: Gal(b1-4)Glc
# Method in brief: as §1
# [7] = target: Gal(b1-4)Glc6S
# Method in brief: as §1
# [8] = target: Gal(b1-4)GlcNAc
# Method in brief: as §1
# [9] = target: Gal(b1-4)GlcNAc(a1-6)Gal(b1-4)GlcNAc
# Method in brief: as §1
# [10] = target: Gal(b1-4)GlcNAc(b1-2)Man(a1-3)Man(b1-4)GlcNAc(b1-4)GlcNAc
# Method in brief: as §1
# [11] = target: Gal(b1-4)GlcNAc(b1-2)Man(a1-3)[Gal(b1-4)GlcNAc(b1-2)Man(a1-6)]Man(b1-4)GlcNAc(b1-4)GlcNAc
# Method in brief: as §1
# [12] = target: Gal(b1-4)GlcNAc(b1-2)Man(a1-3)[Gal(b1-4)GlcNAc(b1-2)Man(a1-6)]Man(b1-4)GlcNAc(b1-4)[Fuc(a1-6)]GlcNAc
# Method in brief: as §1
# [13] = target: Gal(b1-4)GlcNAc(b1-2)Man(a1-3)[GlcNAc(b1-2)Man(a1-6)]Man(b1-4)GlcNAc(b1-4)GlcNAc
# Method in brief: as §1
# [14] = target: Gal(b1-4)GlcNAc(b1-2)Man(a1-3)[Man(a1-6)]Man(b1-4)GlcNAc(b1-4)GlcNAc
# Method in brief: as §1
# [15] = target: Gal(b1-4)GlcNAc(b1-2)Man(a1-6)Man(b1-4)GlcNAc(b1-4)GlcNAc
# Method in brief: as §1
# [16] = target: Gal(b1-4)GlcNAc(b1-2)Man(a1-6)[GlcNAc(b1-2)Man(a1-3)]Man(b1-4)GlcNAc(b1-4)GlcNAc
# Method in brief: as §1
# [17] = target: Gal(b1-4)GlcNAc(b1-2)Man(a1-6)[Man(a1-3)]Man(b1-4)GlcNAc(b1-4)GlcNAc
# Method in brief: as §1
# [18] = target: Gal(b1-4)GlcNAc(b1-2)[Gal(b1-4)GlcNAc(b1-4)]Man(a1-3)[Gal(b1-4)GlcNAc(b1-2)Man(a1-6)]Man(b1-4)GlcNAc(b1-4)GlcNAc
# Method in brief: as §1
# [19] = target: Gal(b1-4)GlcNAc(b1-2)[Gal(b1-4)GlcNAc(b1-4)]Man(a1-3)[Gal(b1-4)GlcNAc(b1-2)[Gal(b1-4)GlcNAc(b1-6)]Man(a1-6)]Man(b1-4)GlcNAc(b1-4)GlcNAc
# Method in brief: as §1
# [20] = target: Gal(b1-4)GlcNAc(b1-3)Gal(b1-3)GlcNAc
# Method in brief: as §1
# [21] = target: Gal(b1-4)GlcNAc(b1-3)Gal(b1-4)Glc
# Method in brief: as §1
# [22] = target: Gal(b1-4)GlcNAc(b1-3)Gal(b1-4)GlcNAc
# Method in brief: as §1
# [23] = target: Gal(b1-4)GlcNAc(b1-3)Gal(b1-4)GlcNAc(b1-3)Gal(b1-4)GlcNAc
# Method in brief: as §1
# [24] = target: Gal(b1-4)GlcNAc(b1-3)Gal(b1-4)[Fuc(a1-3)]GlcNAc(b1-3)Gal(b1-4)[Fuc(a1-3)]GlcNAc
# Method in brief: as §1
# [25] = target: Gal(b1-4)GlcNAc(b1-3)GalNAc
# Method in brief: as §1
# [26] = target: Gal(b1-4)GlcNAc(b1-3)[Gal(b1-4)GlcNAc(b1-6)]Gal(b1-4)GlcNAc
# Method in brief: as §1
# [27] = target: Gal(b1-4)GlcNAc(b1-3)[Gal(b1-4)GlcNAc(b1-6)]GalNAc
# Method in brief: as §1
# [28] = target: Gal(b1-4)GlcNAc(b1-3)[GlcNAc(b1-6)]Gal(b1-4)GlcNAc
# Method in brief: as §1
# [29] = target: Gal(b1-4)GlcNAc(b1-6)Gal(b1-4)GlcNAc
# Method in brief: as §1
# [30] = target: Gal(b1-4)GlcNAc(b1-6)GalNAc
# Method in brief: as §1
# [31] = target: Gal(b1-4)GlcNAc(b1-6)[Gal(b1-3)]GalNAc
# Method in brief: as §1
# [32] = target: Gal3S(b1-3)GalNAc
# Method in brief: as §1
# [33] = target: Gal3S(b1-3)GlcNAc
# Method in brief: as §1
# [34] = target: Gal3S(b1-3)[Fuc(a1-4)]GlcNAc
# Method in brief: as §1
# [35] = target: Gal3S(b1-4)Glc
# Method in brief: as §1
# [36] = target: Gal3S(b1-4)Glc6S
# Method in brief: as §1
# [37] = target: Gal3S(b1-4)GlcNAc
# Method in brief: as §1
# [38] = target: Gal3S(b1-4)GlcNAc6S
# Method in brief: as §1
binder,measurement,setting,value
"Galatrox (Botrops atrox), P0DM53 (protein) NNCPQDWLPMNGLCYKIFDELKAWKDAEMFCRKYKPGCHLASIILYGESPEWAEGHSEVWLGLWDKKKDFSWEWTDR",glycan array binding signal (z-score),[1],0.985
same,glycan array binding signal (z-score),[2],-0.326
same,glycan array binding signal (z-score),[3],-0.094
same,glycan array binding signal (z-score),[4],0.067
same,glycan array binding signal (z-score),[5],-0.37
same,glycan array binding signal (z-score),[6],0.951
same,glycan array binding signal (z-score),[7],-0.022
same,glycan array binding signal (z-score),[8],1.3
same,glycan array binding signal (z-score),[9],3.28
same,glycan array binding signal (z-score),[10],0.267
same,glycan array binding signal (z-score),[11],1.27
same,glycan array binding signal (z-score),[12],1.04
same,glycan array binding signal (z-score),[13],0.697
same,glycan array binding signal (z-score),[14],0.001
same,glycan array binding signal (z-score),[15],2.53
same,glycan array binding signal (z-score),[16],1.11
same,glycan array binding signal (z-score),[17],1.15
same,glycan array binding signal (z-score),[18],3.31
same,glycan array binding signal (z-score),[19],3.13
same,glycan array binding signal (z-score),[20],1.3
same,glycan array binding signal (z-score),[21],2.92
same,glycan array binding signal (z-score),[22],3.16
same,glycan array binding signal (z-score),[23],3.28
same,glycan array binding signal (z-score),[24],3.31
same,glycan array binding signal (z-score),[25],1.31
same,glycan array binding signal (z-score),[26],4.18
same,glycan array binding signal (z-score),[27],3.1
same,glycan array binding signal (z-score),[28],3.11
same,glycan array binding signal (z-score),[29],2.92
same,glycan array binding signal (z-score),[30],2.44
same,glycan array binding signal (z-score),[31],1.77
same,glycan array binding signal (z-score),[32],-0.361
same,glycan array binding signal (z-score),[33],-0.363
same,glycan array binding signal (z-score),[34],-0.356
same,glycan array binding signal (z-score),[35],-0.363
same,glycan array binding signal (z-score),[36],-0.351
same,glycan array binding signal (z-score),[37],-0.368
same,glycan array binding signal (z-score),[38],-0.353
